# In the supplement of paper PMC3334620:
# Over roughly 33,000 sequences, “E-score (-0.5 to 0.5)” has its median near -0.035; the highest 2% begin near 0.35. The list shows a part of the results.
# Target: T1, Pdr3 (UniProt P33200)
# T1 sequence: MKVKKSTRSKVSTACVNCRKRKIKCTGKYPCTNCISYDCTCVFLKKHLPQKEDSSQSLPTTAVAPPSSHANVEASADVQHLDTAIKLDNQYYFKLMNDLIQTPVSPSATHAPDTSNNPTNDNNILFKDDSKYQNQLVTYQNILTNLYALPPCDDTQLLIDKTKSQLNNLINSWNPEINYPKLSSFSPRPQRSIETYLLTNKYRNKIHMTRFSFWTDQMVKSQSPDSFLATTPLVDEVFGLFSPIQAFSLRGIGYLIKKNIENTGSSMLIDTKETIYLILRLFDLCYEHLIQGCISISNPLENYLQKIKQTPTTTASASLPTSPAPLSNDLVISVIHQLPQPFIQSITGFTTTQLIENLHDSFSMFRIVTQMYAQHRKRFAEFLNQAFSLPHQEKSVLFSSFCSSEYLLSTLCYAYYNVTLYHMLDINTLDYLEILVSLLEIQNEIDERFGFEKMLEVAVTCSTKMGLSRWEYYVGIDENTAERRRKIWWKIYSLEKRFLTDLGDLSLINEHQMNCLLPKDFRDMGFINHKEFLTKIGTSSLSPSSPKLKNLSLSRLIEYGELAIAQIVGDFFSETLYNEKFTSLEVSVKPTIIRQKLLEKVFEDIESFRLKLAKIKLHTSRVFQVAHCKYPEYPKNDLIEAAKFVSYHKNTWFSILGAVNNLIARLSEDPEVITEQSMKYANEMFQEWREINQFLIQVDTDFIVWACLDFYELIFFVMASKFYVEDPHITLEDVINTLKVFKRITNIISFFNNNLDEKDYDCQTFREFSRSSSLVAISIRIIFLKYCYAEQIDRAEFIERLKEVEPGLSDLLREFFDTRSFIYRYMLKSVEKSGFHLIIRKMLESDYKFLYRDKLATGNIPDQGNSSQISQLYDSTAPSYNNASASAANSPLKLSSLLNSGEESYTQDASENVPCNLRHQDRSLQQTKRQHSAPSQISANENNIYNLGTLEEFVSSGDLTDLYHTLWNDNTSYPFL
# Assay: PBM E-score (8-mer binding enrichment) (E-score (-0.5 to 0.5)); higher = stronger / more preferred TF binding; most listed sequences are background and not binding sites
# Conditions: protein concentration: 200 nM; construct: GST-full length
# Outline: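 The E-score, a modified Wilcoxon-Mann-Whitney statistic, was computed by the Universal PBM Analysis Suite for every ungapped eight-base word pooled with its reverse complement. Scans behind it were normalised with masliner after bound GST-tagged yeast transcription factors were detected with fluorescent anti-GST. The proteins, at about 100-200 nM, had been applied to universal all-10-mer Agilent arrays made double-stranded by primer extension.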
row,Sequence,PBM E-score
1,ATTAGGAG,-0.0566
2,CCGATAAC,0.125
3,ACAGTGAT,-0.099
4,AATGCGGG,0.237
5,ATGGAAGC,0.179
6,CAGACATC,0.0243
7,GTTTTGAA,-0.161
8,GGCGGTAA,0.326
9,AAACTTAG,-0.216
10,ATCTGCCC,0.055
11,TCGATACA,-0.0894
12,CATAGATA,-0.0687
13,TTCGCGAA,0.164
14,CGGAAAGC,0.415
15,CCTAACAA,-0.19
16,CATCGCTC,0.161
17,CAGGCTGC,-0.251
18,GTATTAAA,-0.021
19,GGATCGCA,0.101
20,CCAGGAGA,-0.158
21,CATGGAGA,0.0144
22,CCTGATAA,-0.0871
23,CCCCTAAA,-0.183
24,TAACGGTA,0.0452
25,TACTTTGA,-0.0901

row,Sequence,PBM E-score
1,GGGTCCGA,0.234
2,AACCGTCA,-0.081
3,CTGGCGAC,-0.19
4,AACCTTCG,0.0241
5,CGTCTCTA,-0.136
6,ATATGCTA,-0.0437
7,GCAAATAA,0.0539
8,AAGTAAAG,-0.0735
9,TAGGTAGA,-0.131
10,ATTCCCAG,0.122
11,CCTTCAAA,-0.0391
12,TTGTCAAA,-0.106
13,GTACTCAC,-0.0194
14,GCTTCTAC,-0.219
15,AGCAATGG,-0.0344
16,GACCAGTC,-0.116
17,ATGGTGAG,-0.18
18,AGGACAGA,-0.0364
19,CCGGTGAC,0.123
20,ACTAGCAC,-0.139
21,CTCCGATA,0.266
22,AGTTGTAA,-0.171
23,ATTTTATA,0.257
24,CCTCCCAA,-0.0444
25,ACGCTGCT,-0.114

row,Sequence,PBM E-score
1,GAACTAGA,0.0196
2,GGAGGAGA,-0.0344
3,CAAATTGC,0.0819
4,CTTGAATA,-0.02
5,GATGACCC,-0.0274
6,ACTCGAAC,-0.0758
7,AGACTGCG,-0.129
8,CCAGCTCC,-0.00677
9,GAATTGCA,0.0559
10,ATACCTAC,-0.076
11,GCTTGAGA,-0.196
12,AGTACGGC,0.133
13,ATAGTTTA,-0.127
14,CTAGACGA,-0.231
15,ACACCGGG,0.184
16,AGACTGGG,-0.0821
17,TATTCTGA,-0.0638
18,CTATGGAG,-0.306
19,AAGTTTAC,-0.0671
20,GGGTGCAA,0.179
21,TAAAGATA,0.0993
22,GGGAAAGA,0.0836
23,GTCAATGA,-0.24
24,ACTGAGCT,-0.111
25,CTGAGATA,-0.0303

row,Sequence,PBM E-score
1,AAAGACTT,-0.41
2,CAAGGCGC,0.108
3,AAAATGCG,0.169
4,ATCAAGTA,-0.0615
5,TAGTAAAA,0.0352
6,CCATACGA,-0.237
7,ACAATCTG,-0.0806
8,AGTATGTA,-0.14
9,ACACCGGC,0.179
10,CGACTGTA,-0.287
11,TATCCTAA,-0.081
12,AAGCAGTC,-0.0933
13,CTTCACTA,-0.181
14,ACGCTAGA,-0.276
15,ACCGAGGA,0.0369
16,TAGTGCCA,-0.125
17,ATCATGGC,-0.0314
18,ACATGTCG,0.0268
19,GGCGCTGA,0.0913
20,AGTCGTCC,-0.0586
21,ACTGCCAC,-0.0951
22,AAGCATAC,-0.117
23,GTTTTCAA,0.079
24,GGAGCATA,0.202
25,CCGCCACG,0.192

row,Sequence,PBM E-score
1,CACCGTTC,0.0473
2,ACTTGGTC,0.163
3,ACTATGGG,-0.119
4,CTATCATC,0.07
5,ACTGAGGG,-0.243
6,CGGTCCAA,0.037
7,ATAAAGCA,-0.151
8,ATATCAAG,0.0811
9,CATACAGG,-0.141
10,AGATGTAA,-0.157
11,CCCCTGAG,-0.208
12,AATCGTTA,-0.033
13,TCCACGGA,0.477
14,ATATGCCC,-0.0312
15,AGGAACTA,0.0717
16,ATAGGAAG,-0.126
17,ATGCCAGG,0.0467
18,CGTGATCA,-0.0355
19,CAACGCAA,0.0707
20,GGCGAACA,0.0443
21,ACATGGGG,-0.0899
22,CCCGGCGG,0.382
23,CGTCGTCC,0.0525
24,GCTAACAC,-0.0326
25,AAATGAGC,-0.122

row,Sequence,PBM E-score
1,ATATCCAC,0.0606
2,CGTACCTC,-0.0181
3,ATTCGGCG,0.0891
4,AGGCGTAT,-0.154
5,GGGTATGA,0.0218
6,CCAAAAGA,-0.151
7,AGGCGAGC,-0.1
8,CACCGACG,0.00596
9,GTTAGCAA,-0.147
10,CCCATAAG,-0.00269
11,ACCCTAGG,-0.219
12,AGCCTCCT,-0.225
13,AATGGCTA,-0.082
14,TGGACCAA,0.0375
15,ATAGACAC,-0.099
16,CCAACCGG,0.205
17,AGTTCCTC,-0.0381
18,AAATCAGC,0.0841
19,GAACAATC,0.114
20,CATGCAGG,-0.0784
21,CTTCGCCC,0.0168
22,AGTGATGC,-0.186
23,GTTGAATA,-0.0132
24,AGATACAC,-0.0369
25,ACCGGGCT,0.0718

row,Sequence,PBM E-score
1,GCCGATCA,0.0413
2,GATTCGAA,0.191
3,ACTAATTA,-0.042
4,CACCATCC,-0.0229
5,CATCACAC,0.00885
6,AGATTGCT,-0.164
7,GTCACGGA,0.415
8,CAGATTGG,-0.133
9,ATATGAAC,-0.134
10,ACCGGCAT,0.23
11,CCAGTGAC,-0.214
12,CACAAATG,-0.314
13,ACTAGACG,-0.154
14,GCGGACCC,0.336
15,GTACGGCA,0.0259
16,CAACGGAA,0.47
17,AAGAAGTA,0.0061
18,AAGATACA,-0.114
19,ATATGGGG,-0.00732
20,AGAGAGCG,-0.00106
21,CACCAAGC,-0.0642
22,CAGTCCCC,-0.173
23,ATGGGGGC,-0.247
24,GGTCTGTA,0.164
25,AAAGGCGC,-0.0133

row,Sequence,PBM E-score
1,TCAAGTCA,-0.0922
2,AACCAGGC,0.0204
3,TCGTGAGA,0.0213
4,CTCGCACC,-0.0701
5,ACGTTTTC,0.0552
6,AAGAATTC,-0.0469
7,GTCTGAAC,-0.146
8,AAGGCGAA,-0.0355
9,AGGCAACC,-0.0525
10,ATTAAAAA,0.0695
11,GTCCGGCA,0.295
12,AATTGCGC,0.262
13,CATGGTAA,-0.119
14,ACGTATAC,-0.104
15,CTTTCCAC,0.0771
16,GGCTAGTA,0.0699
17,AGTTAGGA,-0.165
18,ACTTCCCG,0.291
19,ACCCTCGT,-0.0667
20,CGTGGGCA,-0.167
21,CGTATCGA,-0.144
22,CCACTCGA,-0.0185
23,AACATTGA,-0.126
24,CGTGAGAA,-0.0443
25,CGCGGGAC,0.444

row,Sequence,PBM E-score
1,CATGGCAC,0.141
2,CACTTCCG,0.336
3,AGGAATGA,-0.0139
4,GTGCGACA,-0.0394
5,AGTTAGTC,-0.0833
6,ACGCAAGT,-0.255
7,AACGAGTG,-0.207
8,TAACAGGA,-0.0727
9,ATACTCCG,0.371
10,GCCGATAC,0.123
11,CGAAATGC,0.0935
12,CACGCATC,0.0112
13,GCTAGTGA,-0.12
14,CCGGTTAG,0.23
15,CGGCGCAG,0.0101
16,ACCCTCAT,-0.145
17,AGTACCAC,-0.167
18,CTCCAAGA,-0.238
19,CTGGAGTC,-0.147
